Measured values published in the RNAGym collection of RNA variant scans (doi:10.1093/nar/gkz1192).
The source gives no read counts; variants with many changes may rest on few reads.

B1: CPEB3 Ribozyme (parent)
chain: UAACAGGGGGCCACAGCAGAAGCGUUCACGUCGCAGCCCCUGUCAGAUUCUGGUGAAUCUGCGAAUUCUGCUGUAUAUCUC

Variants of: B1
Test: self-cleavage, relative activity (ratio to wild type); higher = more cleavage; in vitro, sequencing
In short: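 CPEB3 self-cleaving ribozyme mutant libraries were made by rounds of error-prone PCR, barcoded, and transcribed in vitro with T7 RNA polymerase for 5 hours at 37°C. Cleavage occurred during transcription and a 15 min DNase I step before EDTA stop. RNAs were reverse transcribed with template switching and Illumina-sequenced, with DNA sequencing mapping barcodes to variants. Relative activity is the variant's cleaved/total read fraction divided by wild type's (minimum 5 reads), averaged across three batches.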

Variant	self-cleavage
A18G A45G A56G U72A U78C	0.06
A18G A35U U48A U60A A77G U78C	0.05
C17G U26A C39U U51A U54C U69C U72C	0.09
C17U U41A U67G C68A	0.12
C17U U41G A45C A56G	0.06
C17U U25C A28U U78C	0.18
C17G U26G G33A	0.06
A18G A35U C68A	0.07
A18G A20G A21G U69A U78C	0.18
A18G A21G A47G U49A	0.35
A18G A47G G61U U72C	0.2
A18G A20U C38U A75G	0.07
A18C C29U C39A A45U U58A	0.08
A18G A47U U48A U54C A56G U67C	0.13
A18G A21G U78C	0.51
A18C U43C C44U U48C U78C	0.01
A18C G33C G53U A75G	0.12
A18G A20C C39U U67C U78A	0.05
C17U U43C U51C U72C	0.31
A18G A21G A28G U60C U76A U80A	0.04
A18G A35G U41A A45G U67G	0.4
C17U U25C C29U C38U	0.51
C17U U26C C34U U60C A77U U78G	0.1
A18C A20G U31A U49C U58C U72A	0.15

Variant	self-cleavage
C17U A18U A45G A65G U80A	0.15
A18C A21G G33A U48C U49C C62U	0.03
C17G A45U U49C U78C	0.05
A18C U49A U60A U72C	0.12
A18G A35G C37A U41C G61U A77G	0.25
A18G A20U A35U	0.28
C17U C23A A45U	0.48
C17U U41C U43A	0.51
A18G A45U A47U U67C	0.1
A18G A45G G46A	0.06
A18G A21G U26A A45C U80C	0.09
A18G A56U U69A U74C	0.28
C17U U31C U72G	0.34
A18G A28G A47G	0.19
A18G A28G U54G A56U A57G A77U	0.11
A18G A20G G52C U78C	0.21
A18G A21G U48C A64G	0.05
C17G C34A U48C A57G	0.2
C17U C44U G61U	0.06
C17U A20G A56G A65G U69C	0.18
A18G A20G U25A	0.36
A18G A28G G46U	0.15
A18G A20G U31C	0.27
C17U C32A A64G	0.07

Variant	self-cleavage
A18G A20G U26A A45C A57G A65G	0.06
A18G A20G A45G U49A A56G	0.23
A18G A21G A47U	0.05
A18C U41C U43C U51C A56G	0.11
A18G A21G A56U A64U U76A	0.38
A18G A21G U25C	0.45
A18C U25A U43C U51G	0.09
A18G A35U C44A A75U U76A	0.06
C17G G33A A57G U60C A64G U72C U80A	0.05
C17G A21G U25C U31A U54C U58C	0.05
A18C A21U U31C U74C A77G	0.21
A18G A21G A45U U48C G63U U78C	0.04
A18G A28G U60C C68U	0.08
A18G A21G U51G U80C	0.72
A18G A45G A57G U74C	0.64
A18C U49C C71A	0.03
A18G A28G U41A A45G U51A	0.16
A18G A28G C44A A45G U54A A57C A77G	0.03
A18C U26C A28U	0.19
C17G C23U U25C G36C U41A U69C	0.06
A18C U67C U72G G73U	0.2
A18G A35G A45U U48A U69A	0.17
C17U U25A U31C A35G A56G U78C	0.06
C17G U51C U67C	0.08

Variant	self-cleavage
A18G A20G U25C U41A U60A A77U	0.23
A18C U25C U31A U66A	0.12
A18G A45G G52A A56G A57G	0.12
C17U U26A A28G C37U	0.07
C17U A21G U26A A57G U69C	0.06
A18G A28G A45U U67C	0.11
A18G A28G U69C A77G	0.94
A18G A20G U51A	0.32
A18G A20U U58C U67C U72C	0.19
A18G A35C U72A C79A	0.15
C17U U31C A35G C37U U72A	0.23
A18G A28G C40U U51C	0.17
C17U A28U C50U U51G U80C	0.27
A18G A35U C50U	0.12
C17U A20U U51C U54C	0.09
C17G G19U U60A U72C	0.1
C17U U69A U78C	0.26
A18G A45G A47G U69C	0.25
A18G A21G U58C U67A	0.17
A18C A35G U43C	0.4
A18G A45G U67A U72C	0.23
A18G A21G G33A U41A	0.29
C17G U25C U54A	0.29
C17U A20G A77G	0.5

Variant	self-cleavage
A18G A45U U51C U60C	0.11
A18G A28G C38A A45U	0.13
C17U A21G U43G U54C U60G U72G	0.04
A18G A45U U54G U74A	0.12
A18G A21G A28U	0.12
A18G A20G A35G U80C	0.5
A18G A28G U43A	0.27
A18G A28C U66C	0.08
C17U A47G U54A U60C	0.17
A18C G46A U60C A64U	0.21
C17U G33U C39U U58C U72C	0.06
A18G A20G A47G U49C A56G	0.62
A18G A21G G22A	0.39
C17G U26C C50U G73A	0.33
A18C U26C G42A	0.21
C17U A28C A57G U72C U76A	0.11
A18G A35G U51A U58C	0.64
A18C A28U A35G C39G U43C	0.04
C17U U41C G46U A56G	0.11
A18G A47G U51A U60C A65G U69A	0.19
C17U U25A U31A A35U A45G	0.07
A18G A35G U48C U72A	0.23
A18G A35G U58C A77U	0.79
A18G A35U U67C	0.05

Variant	self-cleavage
A18G A56G U72A U74A U78C	0.24
A18G A20G C44A U51G C59A	0.03
C17G A21G U49A	0.08
A18G A21G U26C A28U U67C	0.13
A18G A45G A64G	0.41
A18C U25C A35G U51A	0.4
A18G A28G U41A A47U U66A	0.05
A18C U48A U60C	0.08
C17G C32G U43C U48C	0.19
A18G A20U U26C U41A C62U A64G	0.31
A18G A21G G63A	0.42
C17G U26C A47G C68U	0.07
A18G A28C U54C A75U	0.18
C17U U31A U51C A57G	0.14
A18G A28G U72C U78A U80A	0.26
A18G A47U U49C	0.09
A18G A21G U31C A45U C59A U78A	0.03
C17U U76C A77G	0.96
A18G A20G U49C	0.36
C17G U25C U31A U74A	0.03
A18G A20U C34U A45G	0.06
A18G A35U A77G	0.22
A18G A35G U49A U60C	0.19
A18C A45G U58C	0.19

Variant	self-cleavage
C17U G19A U25A U54G	0.2
A18G A28G U48C A56U U67A	0.05
A18G A21G U26A A56G U72A	0.06
A18G A35U A64G	0.17
A18G A20C G73A	0.49
A18G A20G U48C U80A	0.12
A18G A28G U31C U49C C71U	0.07
C17G C23U U58C U60A	0.08
A18G A21G A35G C39U U60C U80C	0.32
A18G A20U A28G U31A A35U G61C	0.15
C17U U31C A45G A47G	0.13
A18G A57G C68G U69A	0.19
A18G A28U U69G	0.21
A18C G42A U72C C79U	0.46
A18G A20C U26C A64G	0.03
A18G A21G C23U C38G G42A U54A U69C	0.05
A18G A28U U54A U80A	0.51
A18C U41C C81U	0.4
A18G A47G A65U	0.36
C17U U26C C34U	0.39
A18G A20G U25C U43A U72A U74C	0.91
A18C C40U G55C	0.14
A18G A35G A45U G63A U80G	0.15
